Results published in patent US20100273722A1, “MODIFIED MINIATURE PROTEINS” (Yale University, priority 2007, published 2010).

Target: chicken c-Src (residues 81-140) SH3 domain-GST fusion protein (chicken), P00523
Assay: fluorescence polarization, 50 nM labeled peptide, SH3-GST titrated

**Q.** CGGAPPLPPRNRPR (modifications not checked) [^Flu1, fluorescently labeled analog of Peptide 1] was tested. Which Kd did it give?
**A.** Its Kd is 1500 nM.
